For this test, the target named is PK1R (Rattus norvegicus, UniProt Q8R416). The settings on record: test compound 1 μM basolateral, 15 min; PK1 10 and 100 nM cumulative; FIGS. 9-11. The method, then:
Methodology. The basic methodology for Using-type ion flux chambers used in these studies was the same as that described in detail above with the following modifications to the experimental protocol. […] The responses to two sequential EFS were used to guage tissue viability and comparability of the responses of individual tissues from each rat and between rats. Tissue conductance was measured at periodic intervals as changes in the amplitudes of brief short-circuit current responses evoked by application of 1 mV amplitude bi-polar pulses from a pulse generator using Ohm's Law. Three to four tissues from each rat were studied. The tissues from a given animal were grouped and assigned accordingly: one control tissue which received only vehicle followed by two consecutive doses of PK1 ligand added in a cumulative fashion to the basolateral surface of the tissue; the remaining two to three tissues from the same animal were assigned to be exposed to a given PK1 receptor antagonist (e.g., 3-4 tissues from 1 rat: Control, Antagonist1, Antagonist2, Antagonist3). Test compound was added to the basolateral tissue side reservoir at a final concentration of 1 μM and allowed a 15 minute incubation period prior to challenge with the PK1 peptide. […]

A number of entries come with more than one value. This is not the full list of results. An entry can have further records. Values given together appear to be repeats (runs, samples, wells or individuals). Brackets tell where a record comes from. Letters count within one entry.

Chain of UniProt Q8R416 (Q8R416 whole entry): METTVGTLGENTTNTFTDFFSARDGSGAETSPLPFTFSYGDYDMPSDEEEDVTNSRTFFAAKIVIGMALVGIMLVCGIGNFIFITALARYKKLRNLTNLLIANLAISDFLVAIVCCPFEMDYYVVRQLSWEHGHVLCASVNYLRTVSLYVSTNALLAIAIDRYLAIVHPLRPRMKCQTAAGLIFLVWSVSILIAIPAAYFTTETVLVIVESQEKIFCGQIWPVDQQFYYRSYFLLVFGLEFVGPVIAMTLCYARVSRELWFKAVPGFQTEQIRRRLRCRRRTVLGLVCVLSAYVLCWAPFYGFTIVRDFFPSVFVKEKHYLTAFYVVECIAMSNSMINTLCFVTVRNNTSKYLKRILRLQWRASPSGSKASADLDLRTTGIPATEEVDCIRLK

For `COc1ccc(Cn2c(N[C@H]3CCCC[C@@H]3NC(=N)N)nc(=O)n(Cc3ccc(Cl)c(Cl)c3)c2=O)cc1` [JNJ 28611921], the “suppression of the PK1 evoked increase in Isc” value is “not suppressed [passage A] and failed to suppress [passage B]”.

The record behind these values is patent US8188081B2, “Methods of treating inflammation using prokineticin 1 receptor antagonists” (Janssen Pharmaceutica, NV, priority 2005, dated 2012).
